According to paper PMC6919601, “Identification of Plasmodium dipeptidyl aminopeptidase allosteric inhibitors by high throughput screening” (PLoS ONE, 2019):
“And” between values parts separate entries of the source, which are not always exact repeats. Equal entries are not always repeated. Hit rate of the full screen: of about 110,000 compounds, about 230 (0.21%) showed an effect of 50% or more. The list shows a part of the results.

molecular target: DPAP1 (Plasmodium falciparum, UniProt Q8IIJ9); assay: primary screen, percent inhibition; read by cleavage of a fluorogenic dipeptide substrate; higher = more effect of the substance; set-up: species or system P. falciparum D10 trophozoite lysates; single well
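Further: 30 min substrate incubation versus DMSO and 10 µM JCP410 controls.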

Sequence of DPAP1 (Q8IIJ9 whole entry, looked up): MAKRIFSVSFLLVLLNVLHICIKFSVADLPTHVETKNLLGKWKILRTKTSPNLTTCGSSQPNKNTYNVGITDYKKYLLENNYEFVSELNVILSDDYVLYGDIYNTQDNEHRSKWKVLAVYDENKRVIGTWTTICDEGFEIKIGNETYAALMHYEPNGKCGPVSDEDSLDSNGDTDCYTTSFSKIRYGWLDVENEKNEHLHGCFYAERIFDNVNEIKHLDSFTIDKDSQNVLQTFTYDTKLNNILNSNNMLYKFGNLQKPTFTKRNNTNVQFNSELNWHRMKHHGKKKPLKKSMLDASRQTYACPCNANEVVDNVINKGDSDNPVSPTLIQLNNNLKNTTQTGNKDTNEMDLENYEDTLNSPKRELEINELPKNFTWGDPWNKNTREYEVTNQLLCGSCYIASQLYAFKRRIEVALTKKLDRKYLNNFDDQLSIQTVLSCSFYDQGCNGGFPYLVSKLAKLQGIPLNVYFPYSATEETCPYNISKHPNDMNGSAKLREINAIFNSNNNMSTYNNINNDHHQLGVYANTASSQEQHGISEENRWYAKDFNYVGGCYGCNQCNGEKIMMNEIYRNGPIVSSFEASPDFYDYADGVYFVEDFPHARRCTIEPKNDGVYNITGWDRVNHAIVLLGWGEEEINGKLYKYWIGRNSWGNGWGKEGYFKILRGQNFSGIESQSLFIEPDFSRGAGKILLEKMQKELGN

Row | Structure (SMILES) | % Inhibition @ 10 uM
1 | C=CCNc1ncnc2sc(C)c(C)c12 | -2.72%
2 | Cc1ccc(NC(=O)c2c(-c3ccccc3)noc2C)nc1 | 5.42%
3 | COCCCN(Cc1ccco1)C(=O)CSc1nc2cccnc2[nH]1 | -0.0309%
4 | O=C(NCc1ccco1)c1ccc(CN2CC(=O)N3CCCCC3C2=O)cc1 (stereo not drawn) | 3.7%
5 | CC1CCc2c(C(=O)NCCCSC3CCCCC3)csc2C1 (stereo not drawn) | -1.44%
6 | COc1cc(/C=C2\NC(=O)NC2=O)cc(OC)c1OC | 1.88%
7 | Cc1nc2cc(NC(=O)N3CCC(c4ccccc4)C3)ccc2n1C (stereo not drawn) | -4.39%
8 | Cc1ccc2c(c1)c1c(c(=O)n(Cc3ccccc3)c(=O)n1C)n2C | 7.06%
9 | COc1ccc(/C=C2/C(=O)N(c3ccc([N+](=O)[O-])cc3)N=C2C)cc1OC | -6.52%
10 | N#CCCN1CCN(c2ccc(F)cc2)CC1 | 3.8%
11 | O=C(NCC(c1ccccc1)c1ccccc1)Nc1ccc(Cl)c(Cl)c1 | -9.55%
12 | C=CCn1c(SCC(=O)NCCc2ccccc2)nc2c1c(=O)n(C)c(=O)n2C | -4.49%
13 | CCOc1ccc(NS(=O)(=O)c2ccc(NC(=O)c3ccccc3Br)cc2)cc1 | 4.57%
14 | Cc1ccc(C)c(Cn2c(CCNC(=O)C(C)C)nc3ccccc32)c1 | -3.52%
15 | O=C(c1ccccc1)c1ccc(NC(=O)C2CCCC2)cc1 | -2.74%
16 | COc1ccc(NS(=O)(=O)c2ccc(NC(=O)COc3cccc4ccccc34)cc2)cc1 | -2.28%
17 | COc1cccc(/C=C2\N=C(c3ccc(F)cc3)OC2=O)c1 | -7.16%
18 | CCCCOc1ccc(C(=O)NCCc2csc3nc(-c4ccc(OC)cc4)nn23)cc1 | 2.59%
19 | CN(Cc1ccco1)C(=O)c1cc2c(Cl)nc3ccccc3c2s1 | 1.66%
20 | Cc1cc(O)c(C2=NCCSC(c3cccnc3)C2)c(=O)o1 (stereo not drawn) | 4.89%
21 | Cc1cccc(NC(=O)CN2C(=O)N/C(=C\c3ccc(-c4cccc(C(=O)O)c4)o3)C2=O)c1 | 2.86%
22 | CSc1nn(Cc2ccccc2)c(NC(C)=O)c1S(=O)(=O)c1ccccc1 | -4.17%
23 | CCc1nnc(NS(=O)(=O)c2ccc(NC(=S)NC(=O)c3ccco3)cc2)s1 | 6.3%
24 | Cc1nn(CCO)c2c1[C@H]1[C@@H](C2)C1(C)C | 4.32%
25 | Cc1ccc(-c2csc3ncnc(Cl)c23)cc1 | 5.63%

Row | Structure (SMILES) | % Inhibition @ 10 uM
26 | COc1ccc(/C=N/c2nc3ccccc3n2Cc2ccccc2)cc1OC | 22.5%
27 | CCS(=O)(=O)c1nc(S(=O)(=O)c2ccc(C)cc2)c(NCc2ccccc2OC)s1 | -2.25%
28 | OCC1CCCN1Cc1cccc2ccccc12 (stereo not drawn) | -7.18%
29 | Cc1ccccc1C1=N/C(=C/c2ccccc2F)C(=O)O1 | 1.25%
30 | Cc1ccc(C(C)NC(=O)Nc2ccccc2)cc1 (stereo not drawn) | 0.968%
31 | O=C(c1ccccc1)N1CCN(CCN2C(=O)c3cccc4cccc(c34)C2=O)CC1 | 7.74%
32 | Cn1cnc2nc(SCC(=O)O)nc(N)c21 | -10.8%
33 | Cc1ccc(/C=C(\NC(=O)c2ccccc2)C(=O)NCc2ccccc2C(F)(F)F)o1 | 5.67%
34 | Cc1ccc(-n2nc(C)c(/C=N/c3c(C)nn(C)c3C)c2O)c(C)c1 | -1.84%
35 | Cc1csc(NC(=O)CCc2nnc3ccc(N4CCC(C)CC4)nn23)n1 | -2.26%
36 | CCOC(=O)NC1(C(F)(F)F)C(=O)NC(C)=C1C(=O)OC (stereo not drawn) | 0.221%
37 | Cc1ccccc1CNCC1CCCO1 (stereo not drawn) | -1.38%
38 | CCC(=O)Nc1ccc(S(=O)(=O)NC2CCCCC2)cc1 | -3.49%
39 | CCOC(=O)N1CCN(C(=O)c2ccc(CS(=O)Cc3ccc(C)cc3)o2)CC1 (stereo not drawn) | -7.62%
40 | O=C(Nc1ccccc1[N+](=O)[O-])C(c1ccccc1)c1ccccc1 | 1.38%
41 | Cc1nn(C(=O)CCC(=O)NC2CCCc3ccccc32)c2ccccc12 (stereo not drawn) | -6.6%
42 | O=[N+]([O-])c1ccc(Nc2ccc(Cl)c(C(F)(F)F)c2)c2nonc12 | -0.856%
43 | CCOC(=O)N1CCN(C(=O)COc2ccc(S(=O)(=O)NC(C)C)cc2)CC1 | 0.64%
44 | CCCCCCOc1ccccc1/C=c1/sc2nc(=O)c(C)nn2c1=O | -3.33%
45 | CCC(Sc1nc2ccccc2c2nc3ccccc3n12)C(=O)NCc1ccco1 (stereo not drawn) | -2.56%
46 | Cc1nn(Cc2ccc(F)cc2)c(C)c1NC(=O)c1c(-c2ccccc2)noc1C | -0.884% and -2.07%
47 | COc1ccc(-c2csc(/C(C#N)=C/c3ccc(Br)o3)n2)cc1 | 0.912%
48 | CC1CCN(C(=O)c2cc(-c3ccco3)on2)CC1 | -1.84%
49 | COc1cccc(C(=O)Nc2cccc(-c3csc(C)n3)c2)c1 | 3.41%
50 | COc1cccc(C2C3=C(O)CC(C)(C)CC3=NC(C)=C2C(=O)Nc2ccc(Br)cn2)c1 (stereo not drawn) | 1.4%

Row | Structure (SMILES) | % Inhibition @ 10 uM
51 | Cc1oc2c(c(C)cc3oc(=O)cc(C)c32)c1-c1ccccc1 | -2.92%
52 | COc1ccc(/C=C(\C#N)c2nc(-c3ccc(F)cc3)cs2)cc1 | 3.83%
53 | Cc1ccc(/C=C2\C(=N)N3N=C(N4CCC(C)CC4)SC3=NC2=O)cc1 | 3.32%
54 | O=C(c1cc(-c2ccc(O)cc2)on1)N1CCN(C(c2ccccc2)c2ccccc2)CC1 | 2.65%
55 | COCCn1c(-c2ccc(F)cc2)cnc1NCc1ccccc1 | 2.31%
56 | Cc1nn(C)cc1CNC(=O)c1cnn2c(C(F)(F)F)cc(-c3ccc(Br)cc3)nc12 | -3.87%
57 | CC(C)c1ccc(C(=O)CN(C)C)cc1 | 0.135%
58 | O=C(Nc1ccc(Cl)cc1)N1CCCCCC1 | -3.23%
59 | Cc1cccc(NC(=O)COc2ccc(Cl)cc2)n1 | 16.8%
60 | CC1=C(C#N)C(=O)N(CC(C)O)C(=O)/C1=C/c1ccc(-c2ccc(C(=O)OC(C)C)cc2)o1 (stereo not drawn) | 0.884%
61 | Cc1cccc2c1-c1sc(C(=O)NC3CCN(Cc4ccccc4)CC3)cc1CO2 | 1.89%
62 | COC(=O)c1cc(O)c2c(-c3ccccc3)nc(C)nc2n1 | 3.25%
63 | Cc1cccc(Oc2nc3c(C)cccn3c(=O)c2/C=C(\C#N)C(=O)NCc2ccccc2)c1C | 0.101%
64 | CCCCCC(=O)Nc1ccc(OC)c(OC)c1 | 5.9%
65 | CCOC(=O)c1cc(-c2ccc(F)cc2)n(CC(=O)NCc2cccnc2)c1C | -3.64%
66 | Cc1onc(-c2ccccc2)c1C(=O)Nc1ccc(S(N)(=O)=O)cc1 | 1.15%
67 | CC(C)CN(CCNC(=O)[C@H](CC1CCCCC1)NC(=O)OC(C)(C)C)CC(C)C | -1.83%
68 | COc1ccc(C2=NC(=O)OC2(C)C)cc1OC | -0.0619%
69 | COc1ccccc1N1CCN(C(=O)/C(=C/c2ccccc2)NC(=O)c2ccccc2)CC1 | 4.09%
70 | Cc1ccc(C(C(=O)NC2CCCCC2)N(C)C)cc1 (stereo not drawn) | -2.04%
71 | OC1CCCN(C2C3CC4CC(C3)CC2C4)C1 (stereo not drawn) | 3.48%
72 | COc1cc2c(cc1OC)CN(C)CCc1cc3c(cc1C(=O)C2)OCO3 | -1.66%
73 | O=C1CC(c2ccc(F)cc2)Cc2nc(N3CCOCC3)ncc21 (stereo not drawn) | 3.53%
74 | O=C(CCn1ccc2cc(S(=O)(=O)N3CCCC3)ccc21)NC1CCN(Cc2ccccc2)CC1 | -4.19%
75 | CCCOc1ccc(N2C(=O)CC(N3CCN(c4ccccc4)CC3)C2=O)cc1 (stereo not drawn) | -1.38%

Row | Structure (SMILES) | % Inhibition @ 10 uM
76 | N#Cc1sc2nc3c(cc2c1N)CCCCC3 | 2.08%
77 | CCOP(=O)(/C(=C(\NC(=O)c1ccccc1)C(=O)O)c1ccccc1)c1ccccc1 (stereo not drawn) | -2.59%
78 | Cc1cc(C)c2c(n1)SCC(=O)N2CC(=O)NCc1ccccc1C | -4.15%
79 | CC(=O)N1CCN(Cc2cc(F)ccc2F)CC1 | -1.75%
80 | N#Cc1c(-c2ccc(O)cc2)c(C#N)c2nc3ccccc3n2c1N | 4.42%
81 | CC(=O)N1CCC2(CC1)OC(=O)C(C)=C2C(=O)NCCCc1ccccc1 | -4.67%
82 | COCC(C)NC(C)Cc1ccccc1F (stereo not drawn) | -0.505%
83 | CC(C)CNC(=O)c1cc(-c2ccco2)nc2ccccc12 | 4.83%
84 | Cc1cncn1CCc1nc2c3ccccc3nc(SCC(=O)c3ccc(F)cc3)n2n1 | 4.31%
85 | COc1cc(/C=C2/NC(=O)N(Cc3ccccc3)C2=O)cc(Cl)c1OC | -14.4%
86 | CCOc1ccc(CNS(=O)(=O)c2c(C)nc3scc(C)n3c2=O)cc1OC | 4.61%
87 | COc1ccc(Br)cc1C1CC(=O)NC2=C1C(=O)CCC2 (stereo not drawn) | 6.91%
88 | CN(C)c1cc[n+](CN2C(=O)c3ccccc3C2=O)cc1 | -0.725%
89 | CCCOc1ccc(C(O)CCNC(CC(C)C)C(=O)O)cc1 (stereo not drawn) | 2.01%
90 | N#CCCN(C1CCCCC1)S(=O)(=O)c1cccc2nsnc12 | 3.32%
91 | Cc1ccc(S(=O)(=O)c2nnn3c2nc(NC(C)C)c2sccc23)cc1C | 4.58%
92 | Cn1ncc2c(N3CCN(C(c4ccccc4)c4ccccc4)CC3)ncnc21 | -1.79%
93 | CCOc1cc2sc(N3CCC(C(=O)NCCCOC(C)C)CC3)nc2cc1Br | 47.4%
94 | COc1cc2nc(SCC(=O)N(C)C3CCCCC3)n3nc(C)nc3c2cc1OC | 4.51%
95 | C=CCN1C=CC(=Cc2sc3ccccc3[n+]2CC)C=C1 | -2.91%
96 | c1cncc(-c2nn3c(C4COc5ccccc5O4)nnc3s2)c1 (stereo not drawn) | 2.89%
97 | CC(C)[C@@H](NC(=O)OCc1ccccc1)C(=O)OCC#N | -6.56%
98 | C#CCN1C(=O)S/C(=C\c2ccc(SC)cc2)C1=O | -1.84%
99 | Cc1nnc(N2CCCC(C(=O)O)C2)c2nn(-c3ccccc3)c(C)c12 (stereo not drawn) | 4.79%
